# According to article PMC9911399, “Two distinct binding modes provide the RNA-binding protein RbFox with extraordinary sequence specificity”:
# Numbering of substitutions follows the chain as printed; changes in the protein carry UniProt numbers. This is one part of the list.
# T1: RBFOX1 RRM (Homo sapiens, UniProt Q9NWB1 109-208)
# T1 sequence: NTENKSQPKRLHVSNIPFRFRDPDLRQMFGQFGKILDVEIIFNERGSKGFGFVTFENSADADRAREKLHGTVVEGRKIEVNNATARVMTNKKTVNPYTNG
# B1: GGUGUAG (DNA:RNA)
# RNA: GGGAGACCGGAAUUCAGAUUGUCCGGUGUAGUUAAAUCCCGUCGUAGCCACCA
# DNA 1: CAATCTGAATTCCGGTCTCCC
# DNA 2: TGGTGGCTACGACGGGATT
# B2: UUUUAGA (DNA:RNA)
# RNA: B1 RNA with G25U, G26U, G28U, U29A, A30G, G31A
# DNA 1: CAATCTGAATTCCGGTCTCCC
# DNA 2: TGGTGGCTACGACGGGATT
# B3: GGGAAUU (DNA:RNA)
# RNA: B1 RNA with U27G, G28A, U29A, A30U, G31U
# DNA 1: CAATCTGAATTCCGGTCTCCC
# DNA 2: TGGTGGCTACGACGGGATT
# B4: CGCUAGG (DNA:RNA)
# RNA: B1 RNA with G25C, U27C, G28U, U29A, A30G
# DNA 1: CAATCTGAATTCCGGTCTCCC
# DNA 2: TGGTGGCTACGACGGGATT
# B5: AGGCUAG (DNA:RNA)
# RNA: B1 RNA with G25A, U27G, G28C
# DNA 1: CAATCTGAATTCCGGTCTCCC
# DNA 2: TGGTGGCTACGACGGGATT
# B6: ACAGUCA (DNA:RNA)
# RNA: B1 RNA with G25A, G26C, U27A, A30C, G31A
# DNA 1: CAATCTGAATTCCGGTCTCCC
# DNA 2: TGGTGGCTACGACGGGATT
# B7: UGAUUCU (DNA:RNA)
# RNA: B1 RNA with G25U, U27A, G28U, A30C, G31U
# DNA 1: CAATCTGAATTCCGGTCTCCC
# DNA 2: TGGTGGCTACGACGGGATT
# B8: GUGGUAA (DNA:RNA)
# RNA: B1 RNA with G26U, U27G, G31A
# DNA 1: CAATCTGAATTCCGGTCTCCC
# DNA 2: TGGTGGCTACGACGGGATT
# B9: UCACGAA (DNA:RNA)
# RNA: B1 RNA with G25U, G26C, U27A, G28C, U29G, G31A
# DNA 1: CAATCTGAATTCCGGTCTCCC
# DNA 2: TGGTGGCTACGACGGGATT
# B10: CUCCUAA (DNA:RNA)
# RNA: B1 RNA with G25C, G26U, U27C, G28C, G31A
# DNA 1: CAATCTGAATTCCGGTCTCCC
# DNA 2: TGGTGGCTACGACGGGATT
# B11: CAGAGAG (DNA:RNA)
# RNA: B1 RNA with G25C, G26A, U27G, G28A, U29G
# DNA 1: CAATCTGAATTCCGGTCTCCC
# DNA 2: TGGTGGCTACGACGGGATT
# B12: GUCACCC (DNA:RNA)
# RNA: B1 RNA with G26U, U27C, G28A, U29C, A30C, G31C
# DNA 1: CAATCTGAATTCCGGTCTCCC
# DNA 2: TGGTGGCTACGACGGGATT
# B13: GUUUAAC (DNA:RNA)
# RNA: B1 RNA with G26U, G28U, U29A, G31C
# DNA 1: CAATCTGAATTCCGGTCTCCC
# DNA 2: TGGTGGCTACGACGGGATT
# B14: CAACUGA (DNA:RNA)
# RNA: B1 RNA with G25C, G26A, U27A, G28C, A30G, G31A
# DNA 1: CAATCTGAATTCCGGTCTCCC
# DNA 2: TGGTGGCTACGACGGGATT
# B15: AACUGUG (DNA:RNA)
# RNA: B1 RNA with G25A, G26A, U27C, G28U, U29G, A30U
# DNA 1: CAATCTGAATTCCGGTCTCCC
# DNA 2: TGGTGGCTACGACGGGATT
# B16: CCUGUUA (DNA:RNA)
# RNA: B1 RNA with G25C, G26C, A30U, G31A
# DNA 1: CAATCTGAATTCCGGTCTCCC
# DNA 2: TGGTGGCTACGACGGGATT
# B17: AUAUUCU (DNA:RNA)
# RNA: B1 RNA with G25A, G26U, U27A, G28U, A30C, G31U
# DNA 1: CAATCTGAATTCCGGTCTCCC
# DNA 2: TGGTGGCTACGACGGGATT
# B18: CUGGGAA (DNA:RNA)
# RNA: B1 RNA with G25C, G26U, U27G, U29G, G31A
# DNA 1: CAATCTGAATTCCGGTCTCCC
# DNA 2: TGGTGGCTACGACGGGATT
# B19: AUUCUUC (DNA:RNA)
# RNA: B1 RNA with G25A, G26U, G28C, A30U, G31C
# DNA 1: CAATCTGAATTCCGGTCTCCC
# DNA 2: TGGTGGCTACGACGGGATT
# B20: GCCGACG (DNA:RNA)
# RNA: B1 RNA with G26C, U27C, U29A, A30C
# DNA 1: CAATCTGAATTCCGGTCTCCC
# DNA 2: TGGTGGCTACGACGGGATT
# Biological target: T1, RBFOX1 RRM
# Assay: EMSA; HiTS-Eq, 1 nM pool, 10 min; buffer printed only for the single-RNA assays: 10 mM Tris pH 7.5, 150 mM NaCl, 3.4 mM EDTA, 0.001% NP-40, 30 C
# Conditions: tags: His6 N-terminal (pET28a); label: 5' 32P
# Summary of the method: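 A pool of RNA with 7 randomized nucleotides, 5′-radiolabelled and with DNA-annealed flanks, was equilibrated at 1 nM for 10 min in 50 µL with purified RbFox RRM, wild type or mutant, across increasing protein concentrations. Free RNA was separated by 8% native PAGE, excised, reverse-transcribed, barcoded by PCR and sequenced. Relative association constants were obtained from read-count changes of each RNA species versus the control reaction and normalised to the cognate motif.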
row,Binder,binding signal
1,B1,0.0135 KA relative to UGCAUGU
2,B2,0.0163 KA relative to UGCAUGU
3,B3,0.0335 KA relative to UGCAUGU
4,B4,0.0136 KA relative to UGCAUGU
5,B5,0.0195 KA relative to UGCAUGU
6,B6,0.00248 KA relative to UGCAUGU
7,B7,0.0149 KA relative to UGCAUGU
8,B8,0.0116 KA relative to UGCAUGU
9,B9,0.0078 KA relative to UGCAUGU
10,B10,0.00489 KA relative to UGCAUGU
11,B11,0.0117 KA relative to UGCAUGU
12,B12,0.00647 KA relative to UGCAUGU
13,B13,0.0102 KA relative to UGCAUGU
14,B14,0.00796 KA relative to UGCAUGU
15,B15,0.0131 KA relative to UGCAUGU
16,B16,0.00818 KA relative to UGCAUGU
17,B17,0.0027 KA relative to UGCAUGU
18,B18,0.0136 KA relative to UGCAUGU
19,B19,0.00177 KA relative to UGCAUGU
20,B20,0.0176 KA relative to UGCAUGU
